# Data as given in the supplement of paper PMC8728848.
# This is one part of the list.
# B1: CLEC-1 (Homo sapiens), Q9NZH3 (protein)
# chain: MQAKYSSTRDMLDDDGDTTMSLHSQASATTRHPEPRRTEHRAPSSTWRPVALTLLTLCLVLLIGLAAWGLLFFQYYQLSNTGQDTISQMEERLGNTSQELQSLQVQNIKLAGSLQHVAEKLCRELYNKAGAHRCSPCTEQWKWHGDNCYQFYKDSKSWEDCKYFCLSENSTMLKINKQEDLEFAASQSYSEFFYSYWTGLLRPDSGKAWLWMDGTPFTSELFHIIIDVTSPRSRDCVAILNGMIFSKDCKELKRCVCERRAGMVKPESLHVPPETLGEGD
# Key:
# Test in all cases: glycan array binding signal (z-score within array); higher = stronger binding
# Conditions in all cases: glycan notation: IUPAC condensed, linker removed
# [1] = biological target: GalNAc(a1-3)GalNAc(a1-3)Gal(a1-4)Gal(b1-4)GlcNAc
# Summary of the method: (§1)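 Glycan array data came from 3228 arrays in the Consortium for Functional Glycomics database, and only arrays with an available protein sequence were kept. Glycan names were put into IUPAC-condensed notation, and columns mapping to the same glycan were averaged. The binding signal is a within-array Z-score, averaged across arrays of one protein sequence run at different concentrations or buffers and across linkers. A negative Z-score can be read as non-binding.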
# GalNAc(b1-3)Gal = biological target: GalNAc(b1-3)Gal
# Summary of the method: as §1
# [2] = biological target: GalNAc(b1-3)Gal(a1-4)Gal(b1-4)GlcNAc
# Summary of the method: as §1
# [3] = biological target: GalNAc(b1-3)Gal(a1-4)Gal(b1-4)GlcNAc(b1-3)Gal(b1-4)Glc
# Summary of the method: as §1
# [4] = biological target: GalNAc(b1-3)Gal(a1-6)Gal(b1-4)Glc
# Summary of the method: as §1
# GalNAc(b1-3)GalNAc = biological target: GalNAc(b1-3)GalNAc
# Summary of the method: as §1
# GalNAc(b1-4)GlcNAc = biological target: GalNAc(b1-4)GlcNAc
# Summary of the method: as §1
# [5] = biological target: GalNAc(b1-4)GlcNAc(b1-2)Man(a1-3)[GalNAc(b1-4)GlcNAc(b1-2)Man(a1-6)]Man(b1-4)GlcNAc(b1-4)GlcNAc
# Summary of the method: as §1
# Glc(a1-4)Glc = biological target: Glc(a1-4)Glc
# Summary of the method: as §1
# Glc(a1-6)Glc(a1-6)Glc = biological target: Glc(a1-6)Glc(a1-6)Glc
# Summary of the method: as §1
# Glc(b1-4)Glc = biological target: Glc(b1-4)Glc
# Summary of the method: as §1
# Glc(b1-6)Glc = biological target: Glc(b1-6)Glc
# Summary of the method: as §1
# GlcA(b1-3)Gal = biological target: GlcA(b1-3)Gal
# Summary of the method: as §1
# GlcA(b1-3)GlcNAc = biological target: GlcA(b1-3)GlcNAc
# Summary of the method: as §1
# GlcA(b1-6)Gal = biological target: GlcA(b1-6)Gal
# Summary of the method: as §1
# [6] = biological target: GlcNAc(a1-3)Gal(b1-4)GlcNAc
# Summary of the method: as §1
# [7] = biological target: GlcNAc(a1-4)Gal(b1-3)GlcNAc
# Summary of the method: as §1
# [8] = biological target: GlcNAc(a1-4)Gal(b1-4)GalNAc
# Summary of the method: as §1
# [9] = biological target: GlcNAc(a1-4)Gal(b1-4)GlcNAc
# Summary of the method: as §1
# [10] = biological target: GlcNAc(a1-4)Gal(b1-4)GlcNAc(b1-3)Gal(b1-4)Glc
# Summary of the method: as §1
# [11] = biological target: GlcNAc(a1-4)Gal(b1-4)GlcNAc(b1-3)Gal(b1-4)GlcNAc
# Summary of the method: as §1
# [12] = biological target: GlcNAc(a1-4)Gal(b1-4)GlcNAc(b1-3)Gal(b1-4)GlcNAc(b1-3)Gal(b1-4)GlcNAc
# Summary of the method: as §1
# [13] = biological target: GlcNAc(a1-4)Gal(b1-4)GlcNAc(b1-3)Gal(b1-4)[Fuc(a1-3)]GlcNAc(b1-3)Gal(b1-4)[Fuc(a1-3)]GlcNAc
# Summary of the method: as §1
# [14] = biological target: GlcNAc(a1-6)Gal(b1-4)GlcNAc
# Summary of the method: as §1
# [15] = biological target: GlcNAc(b1-2)Gal(b1-3)GalNAc
# Summary of the method: as §1
# [16] = biological target: GlcNAc(b1-2)Man(a1-3)[GlcNAc(b1-2)Man(a1-6)]Man(b1-4)GlcNAc(b1-4)GlcNAc
# Summary of the method: as §1
# [17] = biological target: GlcNAc(b1-2)Man(a1-3)[GlcNAc(b1-2)Man(a1-6)]Man(b1-4)GlcNAc(b1-4)[Fuc(a1-6)]GlcNAc
# Summary of the method: as §1
# [18] = biological target: GlcNAc(b1-2)[GlcNAc(b1-4)]Man(a1-3)[GlcNAc(b1-2)Man(a1-6)]Man(b1-4)GlcNAc(b1-4)GlcNAc
# Summary of the method: as §1
# GlcNAc(b1-3)Gal = biological target: GlcNAc(b1-3)Gal
# Summary of the method: as §1
# [19] = biological target: GlcNAc(b1-3)Gal(b1-3)GalNAc
# Summary of the method: as §1
# GlcNAc(b1-3)Gal(b1-4)Glc = biological target: GlcNAc(b1-3)Gal(b1-4)Glc
# Summary of the method: as §1
# [20] = biological target: GlcNAc(b1-3)Gal(b1-4)GlcNAc
# Summary of the method: as §1
# [21] = biological target: GlcNAc(b1-3)Gal(b1-4)GlcNAc(b1-3)Gal(b1-4)GlcNAc
# Summary of the method: as §1
# GlcNAc(b1-3)GalNAc = biological target: GlcNAc(b1-3)GalNAc
# Summary of the method: as §1
# GlcNAc(b1-3)Man = biological target: GlcNAc(b1-3)Man
# Summary of the method: as §1
# [22] = biological target: GlcNAc(b1-3)[GlcNAc(b1-4)][GlcNAc(b1-6)]GlcNAc
# Summary of the method: as §1
# [23] = biological target: GlcNAc(b1-3)[GlcNAc(b1-6)]Gal(b1-4)GlcNAc
# Summary of the method: as §1
binder,measurement,setting,value
B1,glycan array binding signal (z-score),[1],-0.107
same,glycan array binding signal (z-score),GalNAc(b1-3)Gal,-0.362
same,glycan array binding signal (z-score),[2],-0.23
same,glycan array binding signal (z-score),[3],-0.22
same,glycan array binding signal (z-score),[4],-0.789
same,glycan array binding signal (z-score),GalNAc(b1-3)GalNAc,-0.359
same,glycan array binding signal (z-score),GalNAc(b1-4)GlcNAc,-0.283
same,glycan array binding signal (z-score),[5],0.239
same,glycan array binding signal (z-score),Glc(a1-4)Glc,-0.176
same,glycan array binding signal (z-score),Glc(a1-6)Glc(a1-6)Glc,-0.447
same,glycan array binding signal (z-score),Glc(b1-4)Glc,-0.247
same,glycan array binding signal (z-score),Glc(b1-6)Glc,-0.379
same,glycan array binding signal (z-score),GlcA(b1-3)Gal,-0.201
same,glycan array binding signal (z-score),GlcA(b1-3)GlcNAc,-0.237
same,glycan array binding signal (z-score),GlcA(b1-6)Gal,-0.123
same,glycan array binding signal (z-score),[6],-0.164
same,glycan array binding signal (z-score),[7],-0.516
same,glycan array binding signal (z-score),[8],-0.035
same,glycan array binding signal (z-score),[9],2.86
same,glycan array binding signal (z-score),[10],0.903
same,glycan array binding signal (z-score),[11],0.102
same,glycan array binding signal (z-score),[12],-0.105
same,glycan array binding signal (z-score),[13],0.6
same,glycan array binding signal (z-score),[14],2.11
same,glycan array binding signal (z-score),[15],-0.172
same,glycan array binding signal (z-score),[16],-0.064
same,glycan array binding signal (z-score),[17],0.135
same,glycan array binding signal (z-score),[18],-0.541
same,glycan array binding signal (z-score),GlcNAc(b1-3)Gal,-0.083
same,glycan array binding signal (z-score),[19],0.029
same,glycan array binding signal (z-score),GlcNAc(b1-3)Gal(b1-4)Glc,-0.094
same,glycan array binding signal (z-score),[20],-0.24
same,glycan array binding signal (z-score),[21],-0.455
same,glycan array binding signal (z-score),GlcNAc(b1-3)GalNAc,-0.285
same,glycan array binding signal (z-score),GlcNAc(b1-3)Man,-0.059
same,glycan array binding signal (z-score),[22],1.91
same,glycan array binding signal (z-score),[23],0.743
